Laboratory results reported in article PMC4336329 (PLoS ONE, 2015).
The campaign covered roughly 310,000 compounds. About 2,200 (0.71%) showed an effect of 50% or more. The effect is printed as a negative number. This is one part of the list.

Biological target: human ether-à-go-go-related gene (hERG) potassium channel (human, UniProt Q12809)
Assay: primary screen, population patch clamp on CHO cells stably expressing hERG

human ether-à-go-go-related gene (hERG) potassium channel, sequence (Q12809 whole entry, looked up): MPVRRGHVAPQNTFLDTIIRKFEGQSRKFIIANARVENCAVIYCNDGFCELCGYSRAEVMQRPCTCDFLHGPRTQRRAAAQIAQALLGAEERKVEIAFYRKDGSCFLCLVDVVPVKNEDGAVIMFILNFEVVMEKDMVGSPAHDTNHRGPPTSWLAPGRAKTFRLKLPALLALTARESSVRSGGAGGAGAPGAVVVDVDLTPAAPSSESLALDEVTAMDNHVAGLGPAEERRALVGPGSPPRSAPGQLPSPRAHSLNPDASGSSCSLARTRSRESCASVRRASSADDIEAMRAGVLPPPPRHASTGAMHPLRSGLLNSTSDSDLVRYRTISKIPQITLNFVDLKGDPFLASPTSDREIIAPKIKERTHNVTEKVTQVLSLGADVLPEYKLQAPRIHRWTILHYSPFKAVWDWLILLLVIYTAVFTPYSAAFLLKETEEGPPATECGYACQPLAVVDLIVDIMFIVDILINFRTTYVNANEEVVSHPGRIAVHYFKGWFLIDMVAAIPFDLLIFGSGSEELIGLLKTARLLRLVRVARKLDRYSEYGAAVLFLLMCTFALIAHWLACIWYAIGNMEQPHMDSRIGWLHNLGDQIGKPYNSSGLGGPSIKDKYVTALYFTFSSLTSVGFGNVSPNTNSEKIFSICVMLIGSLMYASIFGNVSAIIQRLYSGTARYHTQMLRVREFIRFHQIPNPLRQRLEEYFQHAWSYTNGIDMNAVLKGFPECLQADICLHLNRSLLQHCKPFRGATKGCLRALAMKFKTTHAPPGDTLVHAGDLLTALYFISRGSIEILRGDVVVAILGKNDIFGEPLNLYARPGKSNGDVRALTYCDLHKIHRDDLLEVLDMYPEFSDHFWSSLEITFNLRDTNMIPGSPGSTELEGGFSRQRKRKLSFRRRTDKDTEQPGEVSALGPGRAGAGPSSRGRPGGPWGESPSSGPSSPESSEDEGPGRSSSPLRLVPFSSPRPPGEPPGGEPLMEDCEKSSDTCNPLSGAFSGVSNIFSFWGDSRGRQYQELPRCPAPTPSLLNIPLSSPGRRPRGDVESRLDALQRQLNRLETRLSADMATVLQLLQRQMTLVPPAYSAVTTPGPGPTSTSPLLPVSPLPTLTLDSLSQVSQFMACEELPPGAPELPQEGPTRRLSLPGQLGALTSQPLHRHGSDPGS

SMILES | hERG current change (%, negative = inhibition) at 1uM [%]
COc1cc(/C=C2/C(=N)N3N=C(CC(=O)N4CCOCC4)SC3=NC2=O)ccc1OCc1ccc(F)cc1 | 19.9
CCS(=O)(=O)N1Cc2ccccc2CC1C(=O)Nc1nnc(SCc2c(Cl)cccc2Cl)s1 (stereo not shown) | 17.9
COc1ccc(NC(=O)c2ccccc2-c2ccc(C(F)(F)F)cc2)cc1S(=O)(=O)N1CCOCC1 | 8.67
CCOC(=O)CS(=O)(=O)c1nc(-c2ccc(F)cc2)cc(C(F)(F)F)n1 | 3.82
c1ccc(OCc2nc3ccccc3[nH]2)cc1 | 12
NNC(=O)CN1C(=O)Nc2ccc(Cl)cc2C1c1ccccc1 (stereo not shown) | 13.3
O=C(Cc1cccc(C(F)(F)F)c1)NCC(c1ccco1)N1CCCCC1 (stereo not shown) | 9.69
O=C(NCc1ccccc1Cl)C1CCN(C(=O)c2sccc2-n2cccc2)CC1 | 9.59
Cc1ccccc1C1NC(c2ccccc2C)C([N+](=O)[O-])C(C)(C)C1[N+](=O)[O-] (stereo not shown) | 5.37
S=c1[nH]nc(-c2ccccn2)n1/N=C/c1cccc2ccccc12 | 9.16
CCOC(=O)N1CCN(CC(=O)c2ccc3c(c2)CCN3)CC1 | -5.99
Nc1ccc2nc(-c3cccc(-c4nc5ccc(N)cc5[nH]4)n3)[nH]c2c1 | 15.2
CC(C)(O)C#Cc1ccc(CN2CCN(Cc3ccsc3)C(CCO)C2)s1 (stereo not shown) | 3.1
COCCNc1nc2c(c(=O)[nH]c(=O)n2C)n1CCCc1ccccc1 | 17.1
O=C(N/N=C/c1ccc(Br)cc1)c1ccc(F)cc1 | 9.76
Cc1cccc2nc(CSc3nnc(N)s3)cn12 | 13.6
Cc1ccc(CSc2nnc(C(F)(F)F)n2Cc2ccc(F)cc2)cc1 | 5.8
COc1cccc(C2=Nn3c(nnc3-c3ccccc3O)SC2)c1 | 10.5
Cc1ccccc1NC(=O)c1ccccc1NC(=O)c1ccco1 | 9.7
COc1ccc(NC(=O)Cn2nnc(C(=O)NCc3cccs3)c2N)cc1 | 18.4
CC(C)CC(C(=O)NC1CCCCC1)N(Cc1cccs1)C(=O)c1snc(C(N)=O)c1N (stereo not shown) | 7.79
COc1ccc(C(=O)OCC(=O)NC2CCCC2)c(OC)c1OC | 13.5
O=C(Nc1ccccn1)c1ccc(Br)c(S(=O)(=O)N2CCCC2)c1 | 15.4
O=C(c1ccco1)N1CCc2[nH]nc(-c3ccc(Cl)cc3)c2C1 | 15.5
O=C(OCCN=C1NS(=O)(=O)c2ccccc21)c1ccncc1 | 6.61
CC(Oc1ccccc1Cl)C(=O)N(Cc1cccs1)C1CCS(=O)(=O)C1 (stereo not shown) | -0.472
O=C(Nc1nnc(CCN2CCCCC2)s1)C1CCCCC1 | 8.47
CN(C)c1ccc(-c2nnc(SCC3CCCO3)n2C)cc1 (stereo not shown) | 5.94

SMILES | hERG current change (%, negative = inhibition) at 1uM [%]
COc1ccccc1N1CCN(C(c2cccs2)C(C)NS(=O)(=O)c2ccccc2)CC1 (stereo not shown) | 5.1
O=C(CCc1ccccc1)OCC(=O)c1ccc([N+](=O)[O-])cc1 | 16.3
COc1cc(C(=O)N2CCN(C)CC2)cc(OC)c1OC.Cl | 14.8
O=C(CSc1nnnn1C1CCCCC1)N1CCOCC1 | 6.66
Nc1cc(=O)[nH]c(SCc2ccc(Cl)cc2)n1 | -11.4
O=C(OCc1ccc(C(=O)c2ccccc2)cc1)c1cccc(-c2nnc(-c3ccccc3)o2)c1 | 4.19
CCOC(=O)[C@@H](C)NS(=O)(=O)N(Cc1ccccc1)[C@H](C(=O)OC)C(C)C | 13.1
Cc1oc(-c2ccc(Cl)cc2)nc1CN1CCCC(C(=O)N2CCN(C(=O)c3ccco3)CC2)C1 (stereo not shown) | -75.1
CC12C(=O)N(c3cccc(OC(=O)c4ccco4)c3)C(=O)C1C1c3ccccc3C2c2ccccc21 (stereo not shown) | 7.96
N#C/C(C(=O)c1ccccc1)=C1/CCCCCN1 | 15.3
COc1ccc(-c2nc(CN(C)C(C)c3ccon3)c(C)o2)c(C)c1C (stereo not shown) | 17.2
O=c1cccc2n1CC1CC2CN(C(c2ccccc2)c2sc3ncnn3c2O)C1 (stereo not shown) | 15.4
Cc1cccc(-n2c(/C=C/c3ccccn3)nc3ccccc3c2=O)c1 | 15.3
O=C(O)C1Cc2ccccc2CN1S(=O)(=O)c1ccccc1 (stereo not shown) | 10.8
COC(=O)c1ccc2c(=O)n(Cc3ccc4c(c3)OCO4)c(=S)[nH]c2c1 | 13
CCc1ccc2[nH]c(=O)c(CN(CCO)C(=O)NCc3ccccc3)cc2c1 | 8.06
CCOC(=O)C1CCN(C(=S)Nc2ccccc2)CC1 | 6.38
COc1ccc(CC(=O)N[C@@H](CCSC)c2nc3ccccc3[nH]2)cc1 | 7.68
CS(=O)(=O)N(CC(=O)NCc1ccco1)c1ccc2c(c1)OCO2 | -7.78
Cc1cc(C(=O)N/N=C/c2ccc([N+](=O)[O-])s2)c2ccccc2n1 | 12.2
O=C(Nc1cc(Cl)ccc1Cl)C1CC(=O)N(c2ccc(Br)cc2)C1 (stereo not shown) | 20.5
CCOC(=O)CCCCNC(=O)Nc1ccccc1 | 17.8
COc1ccc(O)c(CNn2c(-c3ccc(Br)cc3)nc3ccccc3c2=O)c1 | 4.61
CCn1nccc1C(=O)Nc1nc2ccccc2n1CCN1CCCCC1 | -11.2
O=C(CN1CCN(C/C=C/c2ccccc2)CC1)Nc1ccc(F)cc1F | -87.4
CC(C)N(Cc1nccn1C)C(=O)c1cc(COc2ccc(-n3cncn3)cc2)on1 | -18.5
CC1CCCCN1C(=O)COC(=O)c1ccc2ccccc2n1 (stereo not shown) | 15
